The supplement of paper PMC7826260
The list shows a part of the results. Viral Rep nickase domains cut single-stranded DNA in vitro (3 µM enzyme, 1 h, 37 °C); shown is the middle of each 90-letter strand. Uncut reads are compared with the no-enzyme pool on a log2 scale; more negative means more cut, near 0 not cut, and no call is made. The scaling is to total reads, so uncut sequences can rise above 0 when many others are cut.

What was measured:
Experiment in all cases: uncleaved DNA left, log2 of reads against the no-enzyme library (log2 ratio); higher = less cleavage (more negative = more Rep cleavage of the k-mer); sequences stand for … in CTCGTCCG…ACCGGAGA
[1] = system: T1, Rep nickase domain of Muscovy duck circovirus
T1 sequence (residues 1-111 of Rep, tag left off): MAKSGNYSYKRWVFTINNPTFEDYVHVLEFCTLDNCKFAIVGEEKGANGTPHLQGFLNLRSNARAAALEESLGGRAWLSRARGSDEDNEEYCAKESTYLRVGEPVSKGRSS
Protocol: (§1)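 A pool of 90-nt single-stranded DNAs with seven random bases just before the constant AC of the nick site (name = the seven bases) was cut by 3 µM recombinant His6-SUMO-tagged Rep nickase domain (300 nM DNA, 50 mM HEPES pH 8.0, 50 mM NaCl, 1 mM MnCl2, 1 h, 37 °C, three replicates). Uncut DNA was amplified and sequenced.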

[2] = system: T2, Rep nickase domain of banana bunchy top virus
T2 sequence (residues 1-94 of Rep, tag left off): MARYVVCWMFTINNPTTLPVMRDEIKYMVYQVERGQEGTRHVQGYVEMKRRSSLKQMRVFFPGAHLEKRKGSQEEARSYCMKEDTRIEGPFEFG
Protocol: as §1

[3] = system: T3, Rep nickase domain of cabbage leaf curl virus
T3 sequence (residues 1-116 of Rep, tag left off): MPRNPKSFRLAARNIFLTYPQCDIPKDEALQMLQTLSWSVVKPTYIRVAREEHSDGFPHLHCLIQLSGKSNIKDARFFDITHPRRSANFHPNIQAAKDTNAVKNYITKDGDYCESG
Protocol: as §1

[4] = system: T4, Rep nickase domain of chickpea chlorotic dwarf virus
T4 sequence (residues 1-124 of Rep, tag left off): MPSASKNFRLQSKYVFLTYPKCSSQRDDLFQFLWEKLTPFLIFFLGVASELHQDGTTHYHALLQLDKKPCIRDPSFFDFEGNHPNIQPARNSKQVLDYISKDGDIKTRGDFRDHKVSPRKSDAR
Protocol: as §1

[5] = system: T5, Rep nickase domain of faba bean necrotic yellows virus
T5 sequence (residues 1-98 of Rep, tag left off): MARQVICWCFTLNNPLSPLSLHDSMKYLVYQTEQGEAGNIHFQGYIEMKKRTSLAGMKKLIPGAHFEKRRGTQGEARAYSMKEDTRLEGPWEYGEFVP
Protocol: as §1

[6] = system: T6, Rep nickase domain of maize striate mosaic virus
T6 sequence (residues 1-117 of Rep, tag left off): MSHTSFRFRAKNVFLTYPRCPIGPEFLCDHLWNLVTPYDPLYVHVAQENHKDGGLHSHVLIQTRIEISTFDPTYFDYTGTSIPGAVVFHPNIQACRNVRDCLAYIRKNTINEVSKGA
Protocol: as §1

[7] = system: T7, Rep nickase domain of porcine circovirus 2
T7 sequence (residues 2-116 of Rep, tag left off): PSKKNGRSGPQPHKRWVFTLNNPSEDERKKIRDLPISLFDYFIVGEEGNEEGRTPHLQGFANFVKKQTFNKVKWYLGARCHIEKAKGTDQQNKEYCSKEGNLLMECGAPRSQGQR
Protocol: as §1

[8] = system: T8, Rep nickase domain of tomato golden mosaic virus
T8 sequence (residues 1-124 of Rep, tag left off): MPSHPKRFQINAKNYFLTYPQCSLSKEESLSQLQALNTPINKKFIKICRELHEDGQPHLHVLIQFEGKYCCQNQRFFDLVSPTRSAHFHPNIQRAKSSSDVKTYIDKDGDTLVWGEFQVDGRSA
Protocol: as §1

[9] = system: T9, Rep nickase domain of tomato yellow leaf curl virus
T9 sequence (residues 1-136 of Rep, tag left off): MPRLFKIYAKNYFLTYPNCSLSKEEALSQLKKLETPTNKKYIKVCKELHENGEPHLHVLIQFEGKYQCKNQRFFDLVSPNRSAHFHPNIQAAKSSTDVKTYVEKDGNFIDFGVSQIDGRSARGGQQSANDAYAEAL
Protocol: as §1

[10] = system: T10, Rep nickase domain of wheat dwarf virus
T10 sequence (residues 1-137 of Rep, tag left off): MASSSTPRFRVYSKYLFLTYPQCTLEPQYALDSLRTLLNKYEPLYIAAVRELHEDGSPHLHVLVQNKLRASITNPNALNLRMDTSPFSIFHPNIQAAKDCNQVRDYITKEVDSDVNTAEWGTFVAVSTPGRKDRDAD
Protocol: as §1

Row | Sequence | uncleaved DNA left (log2) [1] | uncleaved DNA left (log2) [2] | uncleaved DNA left (log2) [3] | uncleaved DNA left (log2) [4] | uncleaved DNA left (log2) [5] | uncleaved DNA left (log2) [6] | uncleaved DNA left (log2) [7] | uncleaved DNA left (log2) [8] | uncleaved DNA left (log2) [9] | uncleaved DNA left (log2) [10]
1 | TGCGATT | 0.0837 | 0.0288 | -0.0997 | 0.16 | -0.00837 | 0.674 | -0.0445 | -0.00338 | -0.0317 | -0.13
2 | GTGCGCC | 0.0801 | 0.0368 | 0.19 | 0.477 | -0.0861 | 0.465 | 0.0575 | 0.00903 | 0.0571 | 0.0509
3 | TCAACAT | 0.0814 | 0.0688 | 0.489 | 0.0652 | 0.0586 | 0.965 | 0.17 | 0.0172 | 0.0143 | 0.0784
4 | ATTGAGG | 0.163 | 0.171 | 0.377 | 1.04 | 0.0743 | 0.513 | 0.282 | 0.217 | 0.156 | 0.147
5 | AGCAACC | -0.00814 | 0.0826 | 0.0717 | 0.0495 | -0.0529 | 0.3 | -2.42 | 0.159 | 0.0595 | 0.18
6 | CGCTTGA | 0.117 | -0.0936 | -0.0405 | 0.129 | 0.0973 | -0.382 | 0.0386 | -0.0123 | 0.219 | 0.161
7 | CAGGTTC | -0.0719 | 0.0452 | 0.0298 | 0.242 | 0.00368 | 0.655 | -0.0815 | 0.0201 | -0.119 | -0.0248
8 | TCGTGGC | -0.0668 | -0.162 | -0.204 | -0.565 | 0.00325 | -0.868 | -0.0854 | -0.165 | -0.0649 | -0.227
9 | TGCAACG | 0.0756 | 0.00456 | -0.629 | -0.866 | 0.0837 | -1.06 | 0.148 | 0.0324 | -0.0118 | -0.0375
10 | AAGGCCC | 0.151 | 0.0103 | 0.062 | 0.245 | 0.051 | -0.031 | 0.0973 | 0.0007 | -0.0575 | -0.017
11 | CTGGTAT | 0.0456 | -0.00803 | 0.21 | 0.775 | -0.0328 | 1.38 | 0.0452 | 0.00446 | -0.131 | -0.108
12 | TTTCCAG | -0.0664 | 0.0204 | -0.597 | -0.842 | 0.0842 | -1.03 | -0.157 | -0.0508 | 0.084 | 0.0345
13 | GCAAAGG | 0.113 | 0.0286 | 0.0509 | 0.772 | -0.0114 | -0.0192 | 0.176 | 0.176 | -0.0159 | 0.0429
14 | TTACACT | 0.0216 | 0.0104 | -0.911 | -2.94 | 0.00432 | -0.682 | -0.42 | -0.183 | 0.0238 | -0.307
15 | GAGCGCT | 0.0101 | 0.0303 | 0.0436 | 0.373 | 0.00149 | 1.2 | -0.239 | -0.00338 | -0.037 | 0.0195
16 | TTTTGAA | -0.128 | -0.08 | -0.0912 | -0.675 | 0.0174 | -0.489 | -0.28 | -0.0116 | -0.0717 | -0.0113
17 | CTCGATA | -0.0921 | 0.0235 | -0.223 | -1.32 | 0.158 | -0.493 | -0.242 | -0.0737 | -0.0281 | -0.0946
18 | TAAGTTC | -0.0243 | -0.0758 | -0.0883 | -2.65 | -0.037 | -0.617 | -0.165 | -0.118 | -0.00583 | -1.05
19 | TGAGCTG | 0.0265 | -0.0331 | 0.414 | 1.48 | -0.0261 | 1.77 | 0.229 | 0.13 | -0.112 | 0.0721
20 | CTAATTT | 0.0475 | -0.0693 | 0.225 | -2.07 | 0.0393 | -0.549 | -0.369 | 0.194 | 0.099 | 0.048
21 | TCGGAGG | 0.269 | 0.127 | 0.612 | 1.11 | 0.179 | 1.08 | 0.305 | 0.29 | 0.115 | 0.0885
22 | CTTCATC | -0.0514 | 0.0588 | 0.0387 | -0.239 | -0.187 | -0.843 | 0.084 | -0.0571 | 0.0351 | 0.0699
23 | CACCAAT | 0.0307 | -0.103 | -0.284 | -2.56 | -0.158 | -0.643 | -1.07 | -0.0905 | 0.0703 | 0.0919
24 | ACTCACA | -0.139 | -0.0223 | -0.198 | -1.3 | -0.0866 | -0.737 | -0.122 | 0.0396 | -0.0911 | 0.0629
25 | AGCTGCG | 0.0971 | 0.118 | -0.511 | 0.841 | 0.067 | -0.105 | 0.177 | 0.0206 | 0.00463 | 0.000251
26 | TACCAAC | -0.0627 | 0.0172 | -0.169 | -1.6 | -0.0711 | -0.251 | -0.331 | -0.0742 | 0.0798 | 0.00709
27 | TGTTTTT | -2.83 | -0.167 | 0.28 | -0.941 | 0.0615 | 0.973 | -2.52 | 0.0316 | 0.0751 | 0.0172
28 | GTGGACA | 0.117 | 0.156 | 1 | 2.18 | 0.00185 | 2.41 | 0.375 | 0.254 | 0.254 | 0.26
29 | GTTCGGA | 0.108 | 0.0987 | 0.318 | 0.853 | 0.0389 | 1.14 | 0.181 | 0.062 | -0.0126 | 0.101
30 | ATCATAG | 0.0266 | 0.075 | -0.662 | -0.163 | 0.0532 | -1.14 | 0.102 | 0.0113 | 0.0919 | -0.0831
